According to PubChem BioAssay AID504832 (National Center for Advancing Translational Sciences (NCATS), 2011):
Screen size: about 310,000 compounds; about 18,000 (5.8%) were called active. Inconclusive means that the source gave no clear call. Such entries were picked first, then a sample of the others. Calls come from the whole dose curve; as a rule, active = well fitted inhibition curve with a large enough effect; inconclusive = small, poorly fitted or top-dose-only effect, or another doubt; inactive = no such curve, though single readings can be large or run the other way. No potency is given beside an inconclusive call; the fits are too rough.

Assay: Primary qHTS for delayed death inhibitors of the malarial parasite plastid, 48 hour incubation
Conditions: P. falciparum luciferase growth in erythrocytes; series mostly up to 28.7 µM; activity change, negative = inhibition: at the top concentration
Method in brief: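 Erythrocytes infected with P. falciparum carrying an integrated firefly luciferase reporter (2% hematocrit, 0.1% parasitemia final) were exposed to compounds in RPMI 1640 with 0.5% Albumax at 37 C, 5% CO2. Growth inhibition was scored as reduced luminescence.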
% is set by controls: 0 for no effect and ±100 for the full control effect; potency is the fitted concentration of half-maximal effect; tags give direction and shape of the fitted curve.

Question: For `CCOc1ccc(C(=O)C(CCC(CN(C)C)C(=O)c2ccc(OCC)cc2)CN(C)C)cc1` (centres undefined), which Potency is on record?
Answer: inconclusive [inhibitor, single point]

Question: For `O=C(c1cc2ccccc2o1)c1nc2c(n1O)CCCCC2`, which “activity change, negative = inhibition” value is on record?
Answer: inactive: 55.4%

Question: Which Potency does the source give for `COc1ccc(S(=O)(=O)N2CCc3ccccc32)cc1C(=O)NCCc1ccccn1` here?
Answer: active: 10.4 µM

Question: Which Potency does the source give for `NCCSc1c(-c2ccc(F)cc2)[nH]c2ccccc12` here?
Answer: inconclusive [inhibitor, single point]

Question: For `COc1cc(NC(=O)c2ncn[nH]2)cc(OC)c1OC`, which “activity change, negative = inhibition” value is on record?
Answer: inactive: -15.3%

Question: With `N/C(=N\OC(=O)Nc1ccccc1)c1cccc(C(F)(F)F)c1` as the compound, how does the Potency read?
Answer: inconclusive [inhibitor, full curve, poor fit]

Question: For `COc1ccc(N(CC(=O)Nc2cccc(OC)c2)S(=O)(=O)c2c(C)nn(C)c2C)cc1`, which Potency is on record?
Answer: inconclusive [inhibitor, partial curve]

Question: Which Potency does the source give for `Cc1ccc(-c2ccc(/C=C3/NC(=O)NC3=O)o2)cc1[N+](=O)[O-]` here?
Answer: inconclusive [inhibitor, single point]

Question: With `COc1ccccc1NC(=O)Nc1nc(CC(=O)Nc2ccc(OC)c(OC)c2)cs1` as the compound, how does the Potency read?
Answer: inconclusive [inhibitor, single point]

Question: For `COc1cccc(C(=O)Oc2cc3c4c(c2)C(C)=CC(C)(C)N4C(=O)C3=O)c1`, which Potency is on record?
Answer: inconclusive [inhibitor, single point]

Question: For `CSc1ccccc1NC(=O)COc1ccc(Cl)cc1Cl`, which “activity change, negative = inhibition” value is on record?
Answer: inactive: 10.4%

Question: Which “activity change, negative = inhibition” value does the source give for `COc1ccccc1CNC(=O)CCSCc1cccc(Cl)c1` here?
Answer: inactive: 3.49%

Question: For `O=C(O)CCCn1c(O)c(C=C2N=c3ccccc3=N2)sc1=S`, which Potency is on record?
Answer: inconclusive [inhibitor, single point]

Question: Which Potency does the source give for `CCOC(=O)C(C)Sc1nnc(CNC(=O)c2ccc(OC)cc2)n1C1CCCCC1` (centres undefined) here?
Answer: inconclusive [inhibitor, partial curve, poor fit]

Question: With `Cc1ccc(C2C3C(=O)N(c4ccccc4)C(=O)C3N3CCCN23)cc1` (centres undefined) as the compound, how does the “activity change, negative = inhibition” value read?
Answer: inactive: 81.2%

Question: Which Potency does the source give for `CCCCn1c(N)c(N(CC(C)C)C(=O)c2cc(-c3ccc(OC)c(OC)c3)nc3ccccc23)c(=O)[nH]c1=O` here?
Answer: active: 1.31 µM

Question: For `Cc1cccc(C)c1N/C=C/c1onc(C)c1[N+](=O)[O-]`, which “activity change, negative = inhibition” value is on record?
Answer: inactive: -7.22%

Question: For `COC(=O)C1=C(c2ccc(OC)c(OC)c2)C[C@@H]2CC[C@H]1N2C(=O)NCCOc1ccc(OC)cc1`, which Potency is on record?
Answer: inconclusive [inhibitor, partial curve]

Question: With `COc1ccc(NC(=O)CCCN2C(=O)C(c3ccccc3)Oc3cccnc32)cc1OC` (centres undefined) as the compound, how does the Potency read?
Answer: inconclusive [inhibitor, single point]

Question: For `CC(C)(C)c1ccc(S(=O)(=O)N2CCN(c3ccccn3)CC2)cc1`, which “activity change, negative = inhibition” value is on record?
Answer: inactive: 0.464%

Question: For `Cc1c(C(=O)N2CCC(C(N)=O)CC2)oc2ccc(Br)cc12`, which “activity change, negative = inhibition” value is on record?
Answer: inactive: 4.47%

Question: For `NS(=O)(=O)c1ccc(CCNC(=O)CN2CCN(c3ccc(F)cc3)CC2)cc1`, which Potency is on record?
Answer: inconclusive [inhibitor, partial curve, poor fit]

Question: For `Cc1onc(-c2c(Cl)cccc2Cl)c1C(=O)N=C(N)N1CCOCC1`, which Potency is on record?
Answer: inconclusive [inhibitor, partial curve, poor fit]

Question: For `COc1ccc(C(O)c2cc(OC)ccc2OP(=O)(N(C)C)N(C)C)cc1` (centres undefined), which Potency is on record?
Answer: active: 10.4 µM

Question: Which Potency does the source give for `COc1ccc(NC(C)=O)cc1NS(=O)(=O)c1ccc2c(c1)OCCO2` here?
Answer: inconclusive [inhibitor, single point]

Question: With `CCCc1cc2c(cc1NC(=O)c1ccccc1C)OCO2` as the compound, how does the Potency read?
Answer: inconclusive [inhibitor, partial curve, poor fit]

Question: For `COC(=O)c1n[nH]n(-c2cc(Cl)cc(Cl)c2)c1=O`, which Potency is on record?
Answer: inconclusive [inhibitor, single point]

Question: Which Potency does the source give for `COCCCNC(=O)c1c(N)n(/N=C/c2ccccn2)c2nc3ccccc3nc12` here?
Answer: inconclusive [inhibitor, partial curve, poor fit]

Question: For `O=c1cc(-c2ccc(O)c(O)c2)oc2c1ccc1ccccc12`, which Potency is on record?
Answer: inconclusive [inhibitor, single point]

Question: Which Potency does the source give for `Cc1cc(CN2CCC(n3nccc3NC(=O)c3ccccc3Cl)CC2)cc(C)c1O` here?
Answer: active: 10.4 µM

Question: With `COc1ccc(N(Cc2cc3ccccc3[nH]c2=O)S(=O)(=O)c2ccccc2)cc1` as the compound, how does the Potency read?
Answer: inconclusive [inhibitor, single point]

Question: For `Cc1cccc(C)c1OCCN1C(=O)NC(C)(c2ccccc2)C1=O` (centres undefined), which “activity change, negative = inhibition” value is on record?
Answer: inactive: -5.82%

Question: Which Potency does the source give for `Cc1nnc(SCc2cc([N+](=O)[O-])cc3c2OCOC3)[nH]c1=O` here?
Answer: inconclusive [inhibitor, full curve, poor fit]

Question: For `CC(C)(C)[C@@H]1CCC(=O)N(CC[C@H](Sc2ccccc2)c2ccccc2)CC1`, which Potency is on record?
Answer: inconclusive [inhibitor, partial curve, poor fit]

Question: Which Potency does the source give for `CC(NC(=S)NC1CCCCC1)c1ccc(C(C)(C)C)cc1` (centres undefined) here?
Answer: active: 5.86 µM

Question: Which Potency does the source give for `CCOC(=O)n1c(=O)n(Cc2cccc(C)c2)c2ccccc21` here?
Answer: inconclusive [inhibitor, partial curve, poor fit]

Question: Which Potency does the source give for `OCCN1CCN(c2nc(-c3ccccc3)c3cc(Cl)ccc3n2)CC1` here?
Answer: inconclusive [inhibitor, full curve, poor fit]

Question: Which “activity change, negative = inhibition” value does the source give for `CN(CCC#N)C(=O)c1cc2c(Cl)nc3ccccc3c2s1` here?
Answer: inactive: -3.73%

Question: Which Potency does the source give for `COc1cccc(C2NC(c3cccc(OC)c3O)C(C)C(=O)C2C)c1O` (centres undefined) here?
Answer: inconclusive [inhibitor, partial curve, poor fit]

Question: With `COc1ccc(NC(=O)c2ccccc2Sc2ccc(NC(C)=O)nc2)cc1` as the compound, how does the “activity change, negative = inhibition” value read?
Answer: inactive: 330%

Question: Which Potency does the source give for `COc1ccc(NC(=O)C(NC(=O)CNC(C)=O)c2ccc(C)cc2)cc1` (centres undefined) here?
Answer: inconclusive [inhibitor, single point]

Question: With `CCCN1C(=O)c2ccccc2NC1c1ccc(Cl)cc1` (centres undefined) as the compound, how does the Potency read?
Answer: active: 13.1 µM

Question: For `CSCCC1NC(=O)N(CC(=O)N2CCc3ccccc3C2)C1=O` (centres undefined), which Potency is on record?
Answer: inconclusive [inhibitor, single point]

Question: With `CC1CC(C)(C)NC(=S)O1` (centres undefined) as the compound, how does the Potency read?
Answer: inactive

Question: Which Potency does the source give for `O=C(C[n+]1cc(Br)cc(Br)c1)c1cccc([N+](=O)[O-])c1` here?
Answer: inconclusive [inhibitor, single point]

Question: With `O=C1N(Cc2cccnc2)C[C@@H]2C[C@@H](c3cccc(OCc4ccccc4)c3)N3CCC[C@@]123` as the compound, how does the Potency read?
Answer: inconclusive [inhibitor, partial curve]

Question: Which Potency does the source give for `Cn1c(=O)c2cc(S(=O)(=O)NCCC(=O)NCc3ccccc3Cl)ccc2n(C)c1=O` here?
Answer: inconclusive [inhibitor, partial curve, poor fit]

Question: Which Potency does the source give for `O=C(CN1C(=O)C2C3CC(C(Br)C3Br)C2C1=O)N1CCN(Cc2ccccc2)CC1` (centres undefined) here?
Answer: inconclusive [inhibitor, partial curve]

Question: With `O=c1c2ccccc2c2c(O)nc(-c3ccccc3)n2n1Cc1ccccc1` as the compound, how does the Potency read?
Answer: inconclusive [inhibitor, single point]

Question: For `Cc1ccc(N/N=C2\CS(=O)(=O)N(C)c3ccsc32)cc1`, which Potency is on record?
Answer: inconclusive [inhibitor, partial curve, poor fit]

Question: With `CCc1cccc(C)c1NC(=S)NCc1ccccc1` as the compound, how does the Potency read?
Answer: inconclusive [inhibitor, single point]

Question: With `CCN(CCCNS(=O)(=O)c1ccc2c(c1)oc(=O)n2C)c1cccc(C)c1` as the compound, how does the Potency read?
Answer: inconclusive [inhibitor, single point]

Question: For `O=C(NCc1ccc(F)cc1)C(=O)Nc1nc(C23CC4CC(CC(C4)C2)C3)cs1`, which Potency is on record?
Answer: active: 11.7 µM

Question: With `COc1cc(C#Cc2c(-c3cncn3C)n(C)c3ccc(-c4ccc5[nH]ccc5c4)cc23)cc(OC)c1` as the compound, how does the Potency read?
Answer: active: 1.47 µM

Question: Which “activity change, negative = inhibition” value does the source give for `NC(=O)NC(=O)CSc1nnc(-c2ccc(Cl)cc2)n1CC1CCCO1` (centres undefined) here?
Answer: inactive: 0%

Question: With `Cc1cccc(Nc2nc(N)c([N+](=O)[O-])c(NCc3ccco3)n2)c1` as the compound, how does the Potency read?
Answer: inconclusive [inhibitor, single point]

Question: For `CCCC(=O)Nc1ccc(Cl)c(NC(=O)c2cccnc2Cl)c1`, which “activity change, negative = inhibition” value is on record?
Answer: inactive: -6.58%

Question: With `Cc1c(C)c2c(c(C)c1OC(=O)CCC(=O)O)CC[C@@](C)(CCC[C@H](C)CCC[C@H](C)CCCC(C)C)O2` as the compound, how does the Potency read?
Answer: inconclusive [inhibitor, single point]

Question: Which “activity change, negative = inhibition” value does the source give for `Cc1ccccc1NC(=O)c1cc(S(=O)(=O)N2CCOCC2)ccc1F` here?
Answer: inactive: -1.85%

Question: For `CC1(C)Cc2cccc(OCC(=O)Nc3cc(C(F)(F)F)ccc3N3CCOCC3)c2O1`, which Potency is on record?
Answer: inconclusive [inhibitor, partial curve]

Question: With `CC(=O)c1ccc(N2CCN(C(=O)CNS(=O)(=O)c3ccc4c(c3)OCCCO4)CC2)c(F)c1` as the compound, how does the Potency read?
Answer: inconclusive [inhibitor, single point]

Question: With `CCC(Sc1nc(C)cc(C)n1)C(=O)Nc1cc(C)on1` (centres undefined) as the compound, how does the “activity change, negative = inhibition” value read?
Answer: inactive: -5.35%

Question: Which “activity change, negative = inhibition” value does the source give for `CC(=O)c1ccc(NC(=O)c2ccc(NC(=O)c3ccco3)cc2)cc1` here?
Answer: inactive: -29.9%

Question: For `O=[N+]([O-])c1ccc(O)c(N=Cc2sc3ccccc3c2O)c1`, which Potency is on record?
Answer: inconclusive [inhibitor, partial curve, poor fit]

Question: With `Cc1ccc(S(=O)(=O)Nc2ncccn2)cc1` as the compound, how does the “activity change, negative = inhibition” value read?
Answer: inactive: 0.38%

Question: For `O=C(NCc1ccc2c(c1)OCO2)c1cc(-c2cc(Cl)ccc2O)n[nH]1`, which Potency is on record?
Answer: inconclusive [inhibitor, partial curve, poor fit]

Question: For `CCN(CC(=O)NCc1cccs1)C(=O)/C=C/c1cccc(Br)c1`, which “activity change, negative = inhibition” value is on record?
Answer: inactive: 4.53%

Question: For `COc1ccccc1N/C=C/c1onc(C)c1[N+](=O)[O-]`, which “activity change, negative = inhibition” value is on record?
Answer: inactive: 134%

Question: For `Oc1cc2c(cc1O)CN(C(=S)NCCc1ccc(Cl)cc1)CCC2`, which Potency is on record?
Answer: inconclusive [inhibitor, single point]
